# The other results are listed elsewhere or left out.
# System: PfAP2-HC AP2 domain (GST-tagged)
# Experiment: gcPBM binding intensity (ln(normalized median fluorescence intensity)); higher = stronger DNA binding
# In short: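 GST-tagged P. falciparum DNA-binding domains, expressed in E. coli (about 25 μg on average), were applied for 1 h to an Agilent 4 × 180k array of primer-extended double-stranded 36-bp intergenic genomic probes plus negative controls. The binding buffer was 1× PBS with 1% milk, 0.2 mg/ml BSA, 0.5% salmon testes DNA and 0.03% Triton X-100. Bound protein was detected with Alexa488 anti-GST antibody and scanned at 488 nm. Binding intensity is the highest Masliner-normalised natural-log median intensity across replicate spots of either probe orientation.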
row,Sequence,gcPBM binding intensity (ln)
1,ATTGTAAGTAGACACACACACATATAGATGTATATA [CACACA_site6463],10.2
2,TATTTTTTTAATAACTGTACTTTTTTGTCAAATGGA [XGTACX_site4179],9.16
3,TTAGGATTGAAGAGTTGTACATACCTCTTATTTGTT [XGTACX_site1376],9.64
4,ATCATATATTATTTATGTACTTATTTATAATAATAT [XGTACX_site8257],9.64
5,TATAAAATGTAATCTGAACACACATATTTTTTTAAT [CACACA_site8521],9.72
6,TTAAAATTATAATACGTACACACCTTATCTTTTTGG [CACACA_site278],9.76
7,GGCGTATGTGTATATACACACCCACGTATATATATA [CACACA_site9046],9.87
8,TGTTGTTTTATGTTGTATTGTAATATATTATATTAT [XGTACX_negctrl_site46],9.9
9,ATATATAACGGGCACACACACATTTACGTATGAATA [CACACA_site1833],11.1
10,ATATATGGAGCTTATACACACTTTTATATTTTAACA [CACACA_site7757],9.82
11,TTGGGCATAATGTCATGTACACAAATAATTCTTTAT [XGTACX_site861],9.55
12,AAACGTGTGTATAATAGTACATAATTATAACGTAAT [XGTACX_site421],10
13,CGTATTTTTGGACATGCATGTACAAATAATCTTATG [TGCATGCA_site973],9.57
14,AAATTTGGCAAACACACACACACACCCACAGAGACA [CACACA_site4490],11.3
15,AATGTTTTTGTGAGATGTATAAATTTTATTTTATTT [XGTACX_negctrl_site413],9.7
16,AAAAAAATAATGTACACACACATATAGGTTTATATA [CACACA_site192],9.98
17,TAAGTTTTGTTCTTTTGTACATATAAGTATAGATCG [XGTACX_site4735],9.46
18,AGATTTATTCATTCATGTACTTATTTATTTTATTTT [XGTACX_site6702],9.87
19,AATGTGCAAACAAACTGTACTTTTTTTTTTTTTTTT [XGTACX_site928],9.57

row,Sequence,gcPBM binding intensity (ln)
1,TATAATGATGATGATAGTACGTATGAGTAAGAAAAA [XGTACX_site31],9.83
2,ATAAAAATATTTATTACACACATAAGCAAAAAAAAA [CACACA_site3484],9.82
3,TATTTTTATTTTTAAACCATATATATATATATATAT [CACACA_negctrl_site1560],9.71
4,TATAGTTTCATTCTTTGTACATATATATTATTATTA [XGTACX_site8527],9.77
5,CATACATATATACATACACACACATATAACCAATGT [CACACA_site8679],10.2
6,TTTGTATTACGTTTGTGTACATATACAATGTGTTTT [XGTACX_site7708],9.83
7,TCCATGCATTGACACACACACAAAAAAAAATTCTTT [CACACA_site7847],9.96
8,TTTATTTATTTATGGACACACATACAAATCTTCCAG [CACACA_site4676],9.73
9,AATAATAATGCTTTAACTTTGTTGTTATTTAGAATA [CACACA_negctrl_site1144],9.44
10,TATAAATAAAAGTGTACACACATTAAAATCAAACGT [CACACA_site5316],10.1
11,ATATGTACAAAATAAGCACACACAAAAAAAAAAAAA [CACACA_site8984],10.1
12,AAAAAAAAAAAAAATATATATATATATATATATATA [CACACA_negctrl_site540],10
13,TTTTTTTTTTTTTTTTGTACATAAATTTTTATTAGA [XGTACX_site6409],9.08
14,TTTTTTTTTTTTTTTGCACACTTAAATTTGGTGGCT [CACACA_site5319],9.5
15,GCTTAATACAGAATAACACACAAAATAAATAAATAA [CACACA_site4041],9.97
16,CATATAATAAATAATTGTACTTGATATAATATTATG [XGTACX_site3562],9.56
17,TCTTGATTAACTTAAAAAAAAAAAAAAAAAAAAAAA [CACACA_negctrl_site458],8.96
18,GACATATATACCAAACGTACATATGTGCAAGCATAA [XGTACX_site3089],9.72
19,TTGGCTATAGCCAATTGTACTTTTTCTCTTTGGCTT [XGTACX_site1119],9.5

row,Sequence,gcPBM binding intensity (ln)
1,TATATTTGTGCGTGTACACATTTGAAAAAATATATA [CACACA_site5079],9.61
2,ATAAATTATAATAACTGTACAAAAATAATATATTCA [XGTACX_site1856],9.72
3,AATAATAATAAAAAGGTGCTGAAATATTTTTATTAT [GTGCAC_site9763],9.66
4,TATATAATTATTTTTTGTACTCATAATAATATGAAA [XGTACX_site289],9.37
5,ATTATTAAGGTTTATTCAAAAAAGACGTTTTTAAAT [CACACA_negctrl_site1059],9.34
6,AGACACGTATACGATGCACACGTATGCTTTATATAT [CACACA_site9363],9.83
7,TATGAGAAAAAAAGTACATGCACAAAATGTATATGT [TGCATGCA_site789],9.79
8,CAACATTGTTCCTATTGTACATGAACTGTTCATACG [XGTACX_site4070],9.61
9,ATTATATAAACCAAATGTACAAAAAGGTCGTAGTGG [XGTACX_site1298],10.2
10,TATAATATATGTATATGTACTTATGTTGAGAAACAT [XGTACX_site2117],9.49
11,GAATAATATATATGTTCACACATGGTCTTTATTATA [CACACA_site5457],9.78
12,GTTATATAAACATATGCATGTGAAGTGTTTATTAAT [TGCATGCA_site183],9.8
13,CTTATTTACTATTTTTCACACATTACAGATAAACAA [CACACA_site6095],9.53
14,TAAGTTTTGTTTTTTTGTACTCATTCATACTATCAT [XGTACX_site3638],9.77
15,TAAATATATATATATAGTACAATATAATTATGATAT [XGTACX_site258],9.75
16,TCATTGAAAAAAATCTGTACTGACTATATAGTTGCA [XGTACX_site1566],9.4
17,TATATATATATAATTGCACACATCAAGTTTGATGTT [CACACA_site1288],10.2
18,GTTGTATACAATAATGTGCACATATTAATTTGAACT,9.88
19,AAATGTACAGGACGCACACACATATTTATATTTATA [CACACA_site7689],10.2

# Reference: the supplement of paper PMC11417369
